The whole screen tested about 410,000 compounds, of which about 6,400 (1.6%) were called active. Inconclusive means that the source gave no clear call. Such entries were picked first, then a sample of the others. Calls come from the whole dose curve; as a rule, active = well fitted inhibition curve with a large enough effect; inconclusive = small, poorly fitted or top-dose-only effect; inactive = no such curve, though single readings can be large or run the other way. No potency is given beside an inconclusive call; the fits are too rough.
The compounds below were run against Glucagon-like peptide 1 receptor (Homo sapiens) (UniProt P43220) (assay: qHTS of GLP-1 Receptor Inverse Agonists (Inhibition Mode)). Conditions: HEK293 GLP-1R CRE-luciferase, luminescence, 24 h, GLP-1R form is constitutively active; series mostly up to 38.3 µM.
Chain of UniProt P43220 (P43220 whole entry, looked up): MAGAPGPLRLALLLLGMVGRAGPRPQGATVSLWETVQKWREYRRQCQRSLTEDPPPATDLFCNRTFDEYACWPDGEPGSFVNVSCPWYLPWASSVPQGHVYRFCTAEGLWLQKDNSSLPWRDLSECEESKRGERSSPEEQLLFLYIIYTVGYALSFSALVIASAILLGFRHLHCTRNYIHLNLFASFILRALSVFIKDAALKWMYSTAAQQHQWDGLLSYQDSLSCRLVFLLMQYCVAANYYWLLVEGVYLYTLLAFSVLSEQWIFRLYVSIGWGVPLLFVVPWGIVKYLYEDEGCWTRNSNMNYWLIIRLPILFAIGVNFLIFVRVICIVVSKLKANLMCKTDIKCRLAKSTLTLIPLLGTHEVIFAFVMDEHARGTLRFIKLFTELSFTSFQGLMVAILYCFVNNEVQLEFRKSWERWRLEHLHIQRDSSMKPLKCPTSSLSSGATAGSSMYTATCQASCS
How it was run: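 Cells are plated, allowed 12 hours at 37 deg C, then treated with compounds for 24 hr before luciferase detection reagent is added and luminescence is read after 12 min at room temperature. The HEK293 line carries constitutively active GLP-1R with a cAMP-responsive reporter.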
For `COc1ccc(S(=O)(=O)NCCOc2ccccc2)cc1C`, the Potency was inconclusive [inhibitor, partial curve, poor fit].
For `COc1cccc(C(=O)Nc2nc(-c3nnn(-c4cccc(Cl)c4C)c3C)ns2)c1`, the Potency was inconclusive [inhibitor, partial curve, poor fit].
For `Nc1cc(=O)c2[nH]cnc2[nH]1`, the Potency was “inactive”.
`COc1ccc2c(CNCc3ccco3)c(C(=O)O)n(Cc3cccc(F)c3)c2c1` was tested, and the Potency was “inactive”.
For `O=C1C[C@H]2[C@H](CO)[C@@H](OC(=O)c3ccc(-c4ccccc4)cc3)C[C@H]2O1`, the Potency was inconclusive [inhibitor, partial curve, poor fit].
For `CCOc1ccccc1CN1CCN(C/C=C/c2ccc(OC)cc2)CC1CCO` (stereo not given), the Potency was inconclusive [inhibitor, single point].
In the case of `Cc1cccc(C)c1NC(=O)N1CCCCCCC1`, the Potency is reported as “inactive”.
With `CC(=O)Nc1ccc(S(=O)(=O)NCc2ccc(C(=O)NCCN3CCCCCC3)cc2)cc1` the Potency was “inactive”.
For `Cc1ccc2c(c1)N(C(=O)CCC(=O)NC1CCN(Cc3ccccc3)CC1)CC(C)O2` (stereo not given), the Potency was inconclusive [inhibitor, partial curve].
In the case of `Fc1ccccc1N1CCN(Cc2cnc(Cl)s2)CC1`, the Potency is reported as inconclusive [inhibitor, partial curve, poor fit].
`O=C(Cn1cc(S(=O)(=O)Cc2ccccc2F)c2ccccc21)Nc1ccc(F)c(Cl)c1` was tested, and the Potency was inconclusive [inhibitor, partial curve, poor fit].
For `O=S(=O)(Nc1ccc(-n2cccc2)cc1)c1ccc(Cl)cc1Cl`, the Potency was inconclusive [inhibitor, single point].
`CCC(CO)Oc1cc(NCc2ccc(Cl)cc2Cl)c2ncn(C(C)C)c2c1` (stereo not given) was tested, and the Potency was inconclusive [inhibitor, single point].
In the case of `Cc1cccc(NC(=O)NNC(=O)COc2ccc([N+](=O)[O-])cc2)c1C`, the Potency is reported as inconclusive [inhibitor, single point].
`CCOc1ccc(N(Cc2cc3cc(OC)ccc3[nH]c2=O)S(C)(=O)=O)cc1` was tested, and the Potency was “inactive”.
`CC(C)(C)NC(=O)c1ccccc1-c1nc(-c2ccccc2Cl)no1` was tested, and the Potency was inconclusive [inhibitor, partial curve, poor fit].
`COc1ccc(C(=O)C2CCN(CC(=O)Nc3ccccc3F)CC2)cc1` was tested, and the Potency was inconclusive [inhibitor, partial curve].
`COc1ccc(-c2cc(C(=O)N3CCCCC3)c3ccccc3n2)cc1` was tested, and the Potency was inconclusive [inhibitor, partial curve, poor fit].
With `N#Cc1cccc(NC(=O)CNc2cc(S(=O)(=O)N3CCOCC3)ccc2N2CCCC2)c1` the Potency was inconclusive [inhibitor, single point].
With `O=C(NCc1ccc(F)cc1)C1CCCN(C(=O)Nc2ccc(F)cc2)C1` (stereo not given) the Potency was inconclusive [inhibitor, single point].
In the case of `Cc1cccc(N2CCN(C(=O)CCCn3c(=S)[nH]c4cc5c(cc4c3=O)OCO5)CC2)c1C`, the Potency is reported as inconclusive [inhibitor, partial curve, poor fit].
In the case of `COC(=O)Nc1ccc(S(=O)(=O)N2c3ccccc3CCC2C)cc1` (stereo not given), the Potency is reported as inconclusive [inhibitor, partial curve, poor fit].
`Cc1cc(Cl)ccc1NC(=O)CCC(=O)N/N=C/c1cc([N+](=O)[O-])ccc1O` was tested, and the Potency was “inactive”.
In the case of `O=C(Nc1ccc2c(c1)OCCO2)C(c1ccnc2ccccc12)N1CCN(c2ccc(C(F)(F)F)cn2)CC1` (stereo not given), the Potency is reported as inconclusive [inhibitor, partial curve].
For `CC(C)(C)NC(=O)c1cc(-c2ccc3c(c2)OCO3)nc2ccccc12`, the Potency was inconclusive [inhibitor, partial curve, poor fit].
For `CCC/C(O)=C1\C(=O)CC(C)(C)CC1=Nc1cccc([N+](=O)[O-])c1`, the Potency was inconclusive [inhibitor, single point].
With `COCCNC(=O)c1onc(CSc2cc(C)ccc2C)c1C(=O)O` the Potency was inconclusive [inhibitor, single point].
With `O=C(NCCc1ccccc1Cl)c1cc2ccccn2n1` the Potency was “inactive”.
With `CC(C)(C)NC(=O)N1CCCC(C(=O)c2cccc(Cl)c2)C1` (stereo not given) the Potency was inconclusive [inhibitor, single point].
With `COC(=O)c1c(NC(=O)CN2CCN(c3ccccc3)CC2)c2c(C)cccc2n1C` the Potency was inconclusive [inhibitor, single point].
In the case of `Cc1cc(C)nc(/N=C(\N)Nc2ccc(SC(F)F)cc2)n1`, the Potency is reported as inconclusive [inhibitor, single point].
In the case of `CCOc1ccc(/C=N/NC(=O)C(O)c2ccccc2)c(O)c1` (stereo not given), the Potency is reported as inconclusive [inhibitor, partial curve, poor fit].
For `CCOC(=O)c1ccc(NC(=O)c2nc(SCc3ccc(F)cc3)ncc2Cl)cc1`, the Potency was inconclusive [inhibitor, single point].
With `CC(=O)c1cn(CC(=O)Nc2ccccc2F)c2ccccc12` the Potency was “inactive”.
With `CCCCOC(=O)c1ccc(NC(=O)Nc2ccc(OC)c(OC)c2)cc1` the Potency was inconclusive [inhibitor, partial curve, poor fit].
In the case of `CSc1ncccc1C(=O)NNc1cc(Cl)ccc1Cl`, the Potency is reported as inconclusive [inhibitor, full curve, poor fit].
`COC(=O)c1c(NC(=O)c2cc(=O)c3cc(C)cc(C)c3o2)sc2c1CCC2` was tested, and the Potency was “inactive”.
With `COc1ccc(C(O)c2nc(-c3ccc(Cl)cc3)cs2)cc1` (stereo not given) the Potency was inconclusive [inhibitor, single point].
In the case of `COc1ccccc1NC(=O)c1cc2cc3ccc(OC)c(Cl)c3nc2s1`, the Potency is reported as “inactive”.
In the case of `COc1ccc(CC(=O)Nc2ccc(-c3cn4ccccc4n3)cc2)cc1OC`, the Potency is reported as “inactive”.
For `Cc1ccc2c(c1)C(=O)C(=O)N2CC(=O)OC(C)C`, the Potency was “inactive”.
For `CCN1CCCC1CNC(=O)Cn1nc(C)n2nc(-c3ccccc3)cc2c1=O` (stereo not given), the Potency was inconclusive [inhibitor, partial curve].
With `Cc1ccc(S(=O)(=O)NCCc2nnc3ccc(SCC(=O)Nc4c(C)cc(C)cc4C)nn23)cc1` the Potency was “inactive”.
`Cn1c(=O)cc(SCC(=O)NCCC2=CCCCC2)c2ccccc21` was tested, and the Potency was inconclusive [inhibitor, single point].
In the case of `Cc1ccc(S(=O)(=O)N2CCCc3cc(NC(=O)c4ccc(Cl)cc4)ccc32)cc1`, the Potency is reported as inconclusive [inhibitor, single point].
In the case of `CC1(c2ccccc2)NC(=O)N(CC(=O)N2CCN(S(=O)(=O)c3c(F)cccc3F)CC2)C1=O` (stereo not given), the Potency is reported as “inactive”.
For `Cc1onc(-c2ccccc2)c1C(=O)N/N=C/c1ccc([N+](=O)[O-])s1`, the Potency was inconclusive [inhibitor, single point].
With `CCOC(=O)c1cnn(-c2nc(-c3ccccc3F)cs2)c1C(F)(F)F` the Potency was “inactive”.
In the case of `Fc1ccc(CSc2nncn2NC/C=C/c2ccccc2)cc1`, the Potency is reported as inconclusive [inhibitor, partial curve, poor fit].
For `CC(C)(C)C1CCc2c(sc3nc(-c4cc5cc(Cl)ccc5oc4=O)[nH]c(=O)c23)C1` (stereo not given), the Potency was “inactive”.
In the case of `CC1=C(C(=O)N2CCOCC2)CC(CC(=O)NCc2cccc3ccccc23)C(=O)N1Cc1ccc(C(C)(C)C)cc1` (stereo not given), the Potency is reported as inconclusive [inhibitor, single point].
With `Cc1cccc(-n2ncc3c(=O)[nH]c(SCC(=O)NCCC4=CCCCC4)nc32)c1` the Potency was “inactive”.
In the case of `Cc1ccc(NC(=O)Cn2nc(C(F)(F)F)c3c2CCCC3)cc1`, the Potency is reported as inconclusive [inhibitor, partial curve, poor fit].
For `CC(C)C(O)(C#CCN1CCCCCC1)c1ccccc1` (stereo not given), the Potency was inconclusive [inhibitor, partial curve, poor fit].
With `COc1ccccc1Nc1nc(-c2sc(NC(=O)c3ccccc3)nc2C)cs1` the Potency was “inactive”.
`Cc1ccc(Cl)cc1NS(=O)(=O)c1ccc(-n2cccn2)cc1` was tested, and the Potency was inconclusive [inhibitor, partial curve, poor fit].
With `Cc1ccc(-c2csc(NS(=O)(=O)c3cccc(F)c3)n2)o1` the Potency was inconclusive [inhibitor, single point].
In the case of `CC1(C)CC(=O)C=C(c2ccc(Oc3ccccc3)cc2)C1=O`, the Potency is reported as inconclusive [inhibitor, single point].
In the case of `COc1ccccc1N(Cc1ccccc1)S(=O)(=O)c1cccc(C(=O)Nc2ccccn2)c1`, the Potency is reported as inconclusive [inhibitor, partial curve, poor fit].
With `NC(=O)N1N=C2/C(=C/c3ccccc3)CCCC2C1c1ccccc1` (stereo not given) the Potency was inconclusive [inhibitor, single point].
In the case of `COc1ccccc1C(=O)NC(=O)Nc1ccc(-c2cc(C(F)(F)F)nn2-c2ccccc2)cc1`, the Potency is reported as “inactive”.
In the case of `O=C(C1CCCN(c2ncnc3c2nc2n3CCCCC2)C1)N1CCN(c2ccc(F)cc2)CC1` (stereo not given), the Potency is reported as inconclusive [inhibitor, partial curve].
In the case of `CNC(=O)c1cc2c(-c3ccccc3)nn(C)c2s1`, the Potency is reported as “inactive”.
With `O=C1c2ccccc2C(=O)N1CCCCSc1nnc2c(Cl)cc(Cl)cn12` the Potency was inconclusive [inhibitor, partial curve].
In the case of `Cc1cccc(C2=NN(c3ccccc3)[C@@H](C(=O)N3CCOC3=O)[C@@H]2C)c1`, the Potency is reported as inconclusive [inhibitor, single point].

Source: PubChem BioAssay AID624417 (National Center for Advancing Translational Sciences (NCATS), 2012)
Note: nearly all actives have a fitted effect of over 55% in size.
Potency is the fitted concentration of half-maximal effect; tags give direction and shape of the fitted curve.
